The list shows a part of the results.
Columns and labels:
Assay in all cases: glycan array binding signal (z-score within array); higher = stronger binding
Details in all cases: glycan notation: IUPAC condensed, linker removed
Neu5Ac(a2-6)Gal = target: Neu5Ac(a2-6)Gal
Procedure, shortened: (§1)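 The binding signal is a Z-score computed within each array. Data were drawn from 3228 arrays in the Consortium for Functional Glycomics database, restricted to those with a known protein sequence. Scores were averaged over arrays of the same protein sequence at different concentrations or buffers, and over linkers, and negative values can be taken as non-binding.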

[1] = target: Neu5Ac(a2-6)Gal(b1-3)GlcNAc(b1-3)[Gal(b1-4)GlcNAc(b1-6)]Gal(b1-4)Glc
Procedure, shortened: as §1

Neu5Ac(a2-6)Gal(b1-4)Glc = target: Neu5Ac(a2-6)Gal(b1-4)Glc
Procedure, shortened: as §1

[2] = target: Neu5Ac(a2-6)Gal(b1-4)GlcNAc
Procedure, shortened: as §1

[3] = target: Neu5Ac(a2-6)Gal(b1-4)GlcNAc(b1-2)Man
Procedure, shortened: as §1

[4] = target: Neu5Ac(a2-6)Gal(b1-4)GlcNAc(b1-2)Man(a1-3)Man(b1-4)GlcNAc(b1-4)GlcNAc
Procedure, shortened: as §1

[5] = target: Neu5Ac(a2-6)Gal(b1-4)GlcNAc(b1-2)Man(a1-3)[Gal(b1-4)GlcNAc(b1-2)Man(a1-6)]Man(b1-4)GlcNAc(b1-4)GlcNAc
Procedure, shortened: as §1

[6] = target: Neu5Ac(a2-6)Gal(b1-4)GlcNAc(b1-2)Man(a1-3)[GlcNAc(b1-2)Man(a1-6)]Man(b1-4)GlcNAc(b1-4)GlcNAc
Procedure, shortened: as §1

[7] = target: Neu5Ac(a2-6)Gal(b1-4)GlcNAc(b1-2)Man(a1-3)[GlcNAc(b1-4)][Neu5Ac(a2-6)Gal(b1-4)GlcNAc(b1-2)Man(a1-6)]Man(b1-4)GlcNAc(b1-4)GlcNAc
Procedure, shortened: as §1

[8] = target: Neu5Ac(a2-6)Gal(b1-4)GlcNAc(b1-2)Man(a1-3)[Man(a1-6)]Man(b1-4)GlcNAc(b1-4)GlcNAc
Procedure, shortened: as §1

[9] = target: Neu5Ac(a2-6)Gal(b1-4)GlcNAc(b1-2)Man(a1-3)[Neu5Ac(a2-3)Gal(b1-4)GlcNAc(b1-2)Man(a1-6)]Man(b1-4)GlcNAc(b1-4)GlcNAc
Procedure, shortened: as §1

[10] = target: Neu5Ac(a2-6)Gal(b1-4)GlcNAc(b1-2)Man(a1-3)[Neu5Ac(a2-6)Gal(b1-4)GlcNAc(b1-2)Man(a1-6)]Man(b1-4)GlcNAc(b1-4)GlcNAc
Procedure, shortened: as §1

[11] = target: Neu5Ac(a2-6)Gal(b1-4)GlcNAc(b1-2)Man(a1-3)[Neu5Ac(a2-6)Gal(b1-4)GlcNAc(b1-2)Man(a1-6)]Man(b1-4)GlcNAc(b1-4)[Fuc(a1-6)]GlcNAc
Procedure, shortened: as §1

[12] = target: Neu5Ac(a2-6)Gal(b1-4)GlcNAc(b1-2)Man(a1-6)Man(b1-4)GlcNAc(b1-4)GlcNAc
Procedure, shortened: as §1

[13] = target: Neu5Ac(a2-6)Gal(b1-4)GlcNAc(b1-2)Man(a1-6)[Gal(b1-4)GlcNAc(b1-2)Man(a1-3)]Man(b1-4)GlcNAc(b1-4)GlcNAc
Procedure, shortened: as §1

[14] = target: Neu5Ac(a2-6)Gal(b1-4)GlcNAc(b1-2)Man(a1-6)[GlcNAc(b1-2)Man(a1-3)]Man(b1-4)GlcNAc(b1-4)GlcNAc
Procedure, shortened: as §1

[15] = target: Neu5Ac(a2-6)Gal(b1-4)GlcNAc(b1-2)Man(a1-6)[Man(a1-3)]Man(b1-4)GlcNAc(b1-4)GlcNAc
Procedure, shortened: as §1

[16] = target: Neu5Ac(a2-6)Gal(b1-4)GlcNAc(b1-2)[Neu5Ac(a2-6)Gal(b1-4)GlcNAc(b1-4)]Man(a1-3)[GlcNAc(b1-4)][Neu5Ac(a2-6)Gal(b1-4)GlcNAc(b1-2)[Neu5Ac(a2-6)Gal(b1-4)GlcNAc(b1-6)]Man(a1-6)]Man(b1-4)GlcNAc(b1-4)GlcNAc
Procedure, shortened: as §1

[17] = target: Neu5Ac(a2-6)Gal(b1-4)GlcNAc(b1-2)[Neu5Ac(a2-6)Gal(b1-4)GlcNAc(b1-4)]Man(a1-3)[GlcNAc(b1-4)][Neu5Ac(a2-6)Gal(b1-4)GlcNAc(b1-4)Man(a1-6)]Man(b1-4)GlcNAc(b1-4)GlcNAc
Procedure, shortened: as §1

[18] = target: Neu5Ac(a2-6)Gal(b1-4)GlcNAc(b1-2)[Neu5Ac(a2-6)Gal(b1-4)GlcNAc(b1-6)]Man(a1-6)[Neu5Ac(a2-6)Gal(b1-4)GlcNAc(b1-2)Man(a1-3)][GlcNAc(b1-4)]Man(b1-4)GlcNAc(b1-4)GlcNAc
Procedure, shortened: as §1

[19] = target: Neu5Ac(a2-6)Gal(b1-4)GlcNAc(b1-3)Gal(b1-3)GlcNAc
Procedure, shortened: as §1

[20] = target: Neu5Ac(a2-6)Gal(b1-4)GlcNAc(b1-3)Gal(b1-4)GlcNAc
Procedure, shortened: as §1

[21] = target: Neu5Ac(a2-6)Gal(b1-4)GlcNAc(b1-3)Gal(b1-4)GlcNAc(b1-2)Man(a1-3)[Neu5Ac(a2-6)Gal(b1-4)GlcNAc(b1-3)Gal(b1-4)GlcNAc(b1-2)Man(a1-6)]GalNAc
Procedure, shortened: as §1

[22] = target: Neu5Ac(a2-6)Gal(b1-4)GlcNAc(b1-3)Gal(b1-4)GlcNAc(b1-3)Gal(b1-4)GlcNAc
Procedure, shortened: as §1

[23] = target: Neu5Ac(a2-6)Gal(b1-4)GlcNAc(b1-3)Gal(b1-4)GlcNAc(b1-3)Gal(b1-4)GlcNAc(b1-2)Man(a1-3)[Neu5Ac(a2-6)Gal(b1-4)GlcNAc(b1-3)Gal(b1-4)GlcNAc(b1-3)Gal(b1-4)GlcNAc(b1-2)Man(a1-6)]GalNAc
Procedure, shortened: as §1

[24] = target: Neu5Ac(a2-6)Gal(b1-4)GlcNAc(b1-3)Gal(b1-4)GlcNAc(b1-3)GalNAc
Procedure, shortened: as §1

[25] = target: Neu5Ac(a2-6)Gal(b1-4)GlcNAc(b1-3)Gal(b1-4)GlcNAc(b1-3)[Neu5Ac(a2-6)Gal(b1-4)GlcNAc(b1-3)Gal(b1-4)GlcNAc(b1-6)]GalNAc
Procedure, shortened: as §1

[26] = target: Neu5Ac(a2-6)Gal(b1-4)GlcNAc(b1-3)Gal(b1-4)GlcNAc(b1-6)[Gal(b1-3)]GalNAc
Procedure, shortened: as §1

[27] = target: Neu5Ac(a2-6)Gal(b1-4)GlcNAc(b1-3)Gal(b1-4)[Fuc(a1-3)]GlcNAc(b1-3)Gal(b1-4)[Fuc(a1-3)]GlcNAc
Procedure, shortened: as §1

[28] = target: Neu5Ac(a2-6)Gal(b1-4)GlcNAc(b1-3)GalNAc
Procedure, shortened: as §1

[29] = target: Neu5Ac(a2-6)Gal(b1-4)GlcNAc(b1-3)[Neu5Ac(a2-6)Gal(b1-4)GlcNAc(b1-6)]GalNAc
Procedure, shortened: as §1

[30] = target: Neu5Ac(a2-6)Gal(b1-4)GlcNAc(b1-6)GalNAc
Procedure, shortened: as §1

[31] = target: Neu5Ac(a2-6)Gal(b1-4)GlcNAc(b1-6)[Gal(b1-3)GlcNAc(b1-3)]Gal(b1-4)Glc
Procedure, shortened: as §1

[32] = target: Neu5Ac(a2-6)Gal(b1-4)GlcNAc(b1-6)[Gal(b1-3)]GalNAc
Procedure, shortened: as §1

[33] = target: Neu5Ac(a2-6)Gal(b1-4)GlcNAc6S
Procedure, shortened: as §1

Neu5Ac(a2-6)GalNAc = target: Neu5Ac(a2-6)GalNAc
Procedure, shortened: as §1

[34] = target: Neu5Ac(a2-6)GalNAc(b1-4)GlcNAc
Procedure, shortened: as §1

[35] = target: Neu5Ac(a2-6)GalNAc(b1-4)GlcNAc6S
Procedure, shortened: as §1

B1: Sebin1 (Coprinopsis cinerea), A8PEE3 (protein)
chain: MTSPFYAHIHNVQDDNTWRFTLIFANRATADEWWRAISEAPANTSIAKSITRVTPQYYTHDVNIWNIWNFFADGNIKSISERFRGRLFIVLENDRGGRGITVIPPVPIVDHVSGNWFYIRSKTAPHLFWYYDERRSSIYASKEKRTRFKISIRNPSSQTPKNAIMINTDDVTIHIKENLYVGVDNNLGHIIPTRAYRTFKFGELESGAIAGFDVVENIEERCSSTFDGASLSISGPDSSSPGEPWELV
B1 was tested, and the “glycan array binding signal (z-score)” value (Neu5Ac(a2-6)Gal) was -0.809, the “glycan array binding signal (z-score)” value [1] was -0.017 and the “glycan array binding signal (z-score)” value (Neu5Ac(a2-6)Gal(b1-4)Glc) was -0.396. The “glycan array binding signal (z-score)” value [2] was -0.487, the “glycan array binding signal (z-score)” value [3] was -0.309 and the “glycan array binding signal (z-score)” value [4] was -0.4. The “glycan array binding signal (z-score)” value [5] was 0.09, the “glycan array binding signal (z-score)” value [6] was -0.726 and the “glycan array binding signal (z-score)” value [7] was -0.053. For the same binder, the “glycan array binding signal (z-score)” value [8] was 0.25, the “glycan array binding signal (z-score)” value [9] was 0.31 and the “glycan array binding signal (z-score)” value [10] was -0.194. For the same binder, the “glycan array binding signal (z-score)” value [11] was 0.673, the “glycan array binding signal (z-score)” value [12] was -0.627 and the “glycan array binding signal (z-score)” value [13] was -0.07. The “glycan array binding signal (z-score)” value [14] was 0.53, the “glycan array binding signal (z-score)” value [15] was -0.695 and the “glycan array binding signal (z-score)” value [16] was 1.54. The “glycan array binding signal (z-score)” value [17] was 0.444, the “glycan array binding signal (z-score)” value [18] was 0.391 and the “glycan array binding signal (z-score)” value [19] was -0.663. For the same binder, the “glycan array binding signal (z-score)” value [20] was -0.646, the “glycan array binding signal (z-score)” value [21] was -0.715 and the “glycan array binding signal (z-score)” value [22] was -0.443. For the same binder, the “glycan array binding signal (z-score)” value [23] was -0.084, the “glycan array binding signal (z-score)” value [24] was -0.227 and the “glycan array binding signal (z-score)” value [25] was 0.083. For the same binder, the “glycan array binding signal (z-score)” value [26] was 0.023, the “glycan array binding signal (z-score)” value [27] was -0.031 and the “glycan array binding signal (z-score)” value [28] was -0.313. For the same binder, the “glycan array binding signal (z-score)” value [29] was -0.475, the “glycan array binding signal (z-score)” value [30] was 0.68 and the “glycan array binding signal (z-score)” value [31] was 0.262. For the same binder, the “glycan array binding signal (z-score)” value [32] was 0.235, the “glycan array binding signal (z-score)” value [33] was -0.037 and the “glycan array binding signal (z-score)” value (Neu5Ac(a2-6)GalNAc) was -0.706. The “glycan array binding signal (z-score)” value [34] was -0.56 and the “glycan array binding signal (z-score)” value [35] was 0.591.
